In the supplement of paper PMC12067093, “Discovery and optimisation of a covalent ligand for TRIM25 and its application to targeted protein ubiquitination” (Chemical Science, 2025):
About 21,000 targets were measured; listed, in parts, are those with the largest changes and a random draw of the rest.

Compound: Cc1cc(ccc1-c1ccccc1)C(=O)N1CCCN(CC1)C(=O)CCl [compound 10]
Assay: probe-labelled cysteine peptide fold change vs DMSO (competition) (log2 fold change); higher = less target engagement (more negative = stronger competition)
Conditions: 10 µM; THP-1; incubation time: 4 h
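Further: competitive profiling in live THP-1 cells: cysteine peptides tagged with an iodoacetamide desthiobiotin (IA-DTB) probe, intensity after compound treatment relative to DMSO-treated cells.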

UniProt Q92551, sequence (Q92551 whole entry, looked up): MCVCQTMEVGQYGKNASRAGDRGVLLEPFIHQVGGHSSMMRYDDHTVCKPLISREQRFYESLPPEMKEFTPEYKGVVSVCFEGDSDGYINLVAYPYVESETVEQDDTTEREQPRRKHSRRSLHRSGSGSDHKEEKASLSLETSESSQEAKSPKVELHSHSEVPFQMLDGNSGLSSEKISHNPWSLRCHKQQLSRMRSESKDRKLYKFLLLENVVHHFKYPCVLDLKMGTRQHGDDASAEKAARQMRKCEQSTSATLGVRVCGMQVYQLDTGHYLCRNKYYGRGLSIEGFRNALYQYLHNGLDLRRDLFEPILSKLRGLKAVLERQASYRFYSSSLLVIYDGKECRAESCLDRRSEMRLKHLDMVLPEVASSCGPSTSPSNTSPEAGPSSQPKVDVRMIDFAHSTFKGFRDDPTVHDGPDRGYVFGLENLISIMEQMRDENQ
UniProt Q9UPZ3, sequence (Q9UPZ3 whole entry, looked up): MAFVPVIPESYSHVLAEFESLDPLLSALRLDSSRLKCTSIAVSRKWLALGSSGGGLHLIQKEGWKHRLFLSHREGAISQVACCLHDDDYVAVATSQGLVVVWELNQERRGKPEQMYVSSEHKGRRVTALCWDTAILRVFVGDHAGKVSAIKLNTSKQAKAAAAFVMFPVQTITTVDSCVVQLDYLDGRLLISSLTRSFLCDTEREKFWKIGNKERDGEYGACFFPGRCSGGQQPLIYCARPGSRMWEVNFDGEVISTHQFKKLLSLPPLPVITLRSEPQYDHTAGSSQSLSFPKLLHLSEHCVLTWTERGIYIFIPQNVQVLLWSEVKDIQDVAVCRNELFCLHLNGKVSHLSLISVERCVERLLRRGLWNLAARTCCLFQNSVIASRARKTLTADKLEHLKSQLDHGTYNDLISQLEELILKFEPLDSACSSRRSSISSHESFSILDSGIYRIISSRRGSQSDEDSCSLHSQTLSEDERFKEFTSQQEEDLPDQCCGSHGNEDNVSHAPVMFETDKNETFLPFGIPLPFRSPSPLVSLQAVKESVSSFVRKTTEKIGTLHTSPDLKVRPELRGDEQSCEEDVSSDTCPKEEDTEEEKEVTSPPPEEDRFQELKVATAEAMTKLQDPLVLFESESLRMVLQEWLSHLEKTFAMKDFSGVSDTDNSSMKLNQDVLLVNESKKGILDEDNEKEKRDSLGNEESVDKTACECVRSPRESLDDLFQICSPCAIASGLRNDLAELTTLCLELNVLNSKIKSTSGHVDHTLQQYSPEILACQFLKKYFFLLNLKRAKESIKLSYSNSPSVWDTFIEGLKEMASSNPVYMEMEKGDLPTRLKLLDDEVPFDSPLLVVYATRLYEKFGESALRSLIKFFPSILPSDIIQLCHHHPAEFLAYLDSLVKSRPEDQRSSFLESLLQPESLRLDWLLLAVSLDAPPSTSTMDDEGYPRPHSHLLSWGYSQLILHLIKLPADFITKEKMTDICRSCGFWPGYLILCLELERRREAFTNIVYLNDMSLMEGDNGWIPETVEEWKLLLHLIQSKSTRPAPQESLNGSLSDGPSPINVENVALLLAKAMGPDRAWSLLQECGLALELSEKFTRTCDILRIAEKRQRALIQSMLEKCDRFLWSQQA
UniProt O00410, sequence (O00410 whole entry, looked up): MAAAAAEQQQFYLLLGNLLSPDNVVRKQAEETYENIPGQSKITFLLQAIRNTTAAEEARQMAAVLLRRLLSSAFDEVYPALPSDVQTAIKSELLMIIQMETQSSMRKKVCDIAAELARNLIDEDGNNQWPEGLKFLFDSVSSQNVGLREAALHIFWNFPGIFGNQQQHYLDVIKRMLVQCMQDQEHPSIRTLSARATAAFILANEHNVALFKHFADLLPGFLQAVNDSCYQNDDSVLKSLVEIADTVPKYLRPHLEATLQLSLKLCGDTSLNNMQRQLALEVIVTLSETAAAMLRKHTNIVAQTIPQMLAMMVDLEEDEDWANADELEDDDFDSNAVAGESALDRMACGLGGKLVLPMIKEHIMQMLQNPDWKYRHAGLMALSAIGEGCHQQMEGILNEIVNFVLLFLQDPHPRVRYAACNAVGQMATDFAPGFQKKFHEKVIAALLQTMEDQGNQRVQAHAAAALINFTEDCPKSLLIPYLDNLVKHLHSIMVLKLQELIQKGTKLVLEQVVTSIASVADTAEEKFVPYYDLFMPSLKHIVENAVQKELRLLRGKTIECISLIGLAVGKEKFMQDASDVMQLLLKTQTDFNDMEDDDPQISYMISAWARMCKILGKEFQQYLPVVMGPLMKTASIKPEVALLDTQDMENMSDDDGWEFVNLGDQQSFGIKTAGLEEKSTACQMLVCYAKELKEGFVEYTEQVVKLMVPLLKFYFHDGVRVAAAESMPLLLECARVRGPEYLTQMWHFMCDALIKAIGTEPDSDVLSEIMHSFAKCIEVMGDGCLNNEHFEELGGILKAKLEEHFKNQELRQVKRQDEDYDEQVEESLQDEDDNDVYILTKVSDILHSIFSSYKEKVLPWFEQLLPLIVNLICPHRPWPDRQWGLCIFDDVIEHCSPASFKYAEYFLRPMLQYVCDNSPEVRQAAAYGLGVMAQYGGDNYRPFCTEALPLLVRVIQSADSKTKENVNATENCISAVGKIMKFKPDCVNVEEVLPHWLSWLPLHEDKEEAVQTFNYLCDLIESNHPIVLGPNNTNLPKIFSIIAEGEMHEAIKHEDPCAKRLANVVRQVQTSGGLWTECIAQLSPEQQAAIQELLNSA
UniProt O00505, sequence (O00505 whole entry, looked up): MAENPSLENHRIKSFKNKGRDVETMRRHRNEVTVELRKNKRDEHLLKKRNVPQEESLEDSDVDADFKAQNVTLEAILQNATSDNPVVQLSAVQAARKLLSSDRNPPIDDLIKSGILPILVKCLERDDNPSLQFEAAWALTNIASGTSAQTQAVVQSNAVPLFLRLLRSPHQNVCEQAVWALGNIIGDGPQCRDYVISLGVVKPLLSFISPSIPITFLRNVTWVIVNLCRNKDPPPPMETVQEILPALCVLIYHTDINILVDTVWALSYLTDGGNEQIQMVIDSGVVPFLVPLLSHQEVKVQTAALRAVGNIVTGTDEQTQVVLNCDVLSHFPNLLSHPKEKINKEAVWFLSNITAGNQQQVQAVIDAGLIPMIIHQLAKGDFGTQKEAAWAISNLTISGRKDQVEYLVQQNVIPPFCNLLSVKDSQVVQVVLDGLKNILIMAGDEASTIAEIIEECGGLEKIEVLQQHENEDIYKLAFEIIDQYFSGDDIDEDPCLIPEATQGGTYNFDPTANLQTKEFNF
UniProt O94829, sequence (O94829 whole entry, looked up): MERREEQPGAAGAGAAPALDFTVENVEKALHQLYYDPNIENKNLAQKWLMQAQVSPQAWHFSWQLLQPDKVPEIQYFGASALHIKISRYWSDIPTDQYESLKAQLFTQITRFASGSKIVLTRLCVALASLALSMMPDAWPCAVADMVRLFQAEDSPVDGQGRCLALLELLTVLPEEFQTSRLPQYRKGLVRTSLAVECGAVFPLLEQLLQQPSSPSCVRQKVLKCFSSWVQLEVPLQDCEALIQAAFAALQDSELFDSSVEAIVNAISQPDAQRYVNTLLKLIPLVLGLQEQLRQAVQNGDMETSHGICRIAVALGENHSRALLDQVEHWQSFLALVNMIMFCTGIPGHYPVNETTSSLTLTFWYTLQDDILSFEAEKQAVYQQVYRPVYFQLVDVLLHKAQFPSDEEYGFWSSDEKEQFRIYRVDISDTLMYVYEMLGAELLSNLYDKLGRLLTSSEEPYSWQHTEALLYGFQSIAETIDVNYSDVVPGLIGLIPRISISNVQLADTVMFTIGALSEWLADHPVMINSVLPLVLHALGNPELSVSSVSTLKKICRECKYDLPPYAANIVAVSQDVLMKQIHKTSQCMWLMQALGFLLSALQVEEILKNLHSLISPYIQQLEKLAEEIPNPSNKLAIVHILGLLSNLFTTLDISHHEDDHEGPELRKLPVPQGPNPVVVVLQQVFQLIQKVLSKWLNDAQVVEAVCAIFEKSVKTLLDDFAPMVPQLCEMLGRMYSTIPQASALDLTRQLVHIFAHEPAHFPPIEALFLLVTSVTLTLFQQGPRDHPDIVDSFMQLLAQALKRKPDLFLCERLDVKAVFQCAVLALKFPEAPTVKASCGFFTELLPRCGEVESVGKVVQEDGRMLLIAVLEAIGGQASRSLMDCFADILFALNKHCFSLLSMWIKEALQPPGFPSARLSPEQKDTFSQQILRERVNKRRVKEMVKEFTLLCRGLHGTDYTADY
UniProt P18065, sequence (P18065 whole entry): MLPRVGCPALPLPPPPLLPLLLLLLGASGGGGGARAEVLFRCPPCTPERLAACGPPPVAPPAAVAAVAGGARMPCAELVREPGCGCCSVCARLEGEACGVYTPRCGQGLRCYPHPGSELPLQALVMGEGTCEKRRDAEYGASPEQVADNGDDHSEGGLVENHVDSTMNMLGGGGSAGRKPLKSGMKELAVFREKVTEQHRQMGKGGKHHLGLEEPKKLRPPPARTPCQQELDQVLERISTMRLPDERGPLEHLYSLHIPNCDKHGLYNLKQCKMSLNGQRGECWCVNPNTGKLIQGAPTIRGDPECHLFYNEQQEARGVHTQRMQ
UniProt P83111, sequence (P83111 whole entry): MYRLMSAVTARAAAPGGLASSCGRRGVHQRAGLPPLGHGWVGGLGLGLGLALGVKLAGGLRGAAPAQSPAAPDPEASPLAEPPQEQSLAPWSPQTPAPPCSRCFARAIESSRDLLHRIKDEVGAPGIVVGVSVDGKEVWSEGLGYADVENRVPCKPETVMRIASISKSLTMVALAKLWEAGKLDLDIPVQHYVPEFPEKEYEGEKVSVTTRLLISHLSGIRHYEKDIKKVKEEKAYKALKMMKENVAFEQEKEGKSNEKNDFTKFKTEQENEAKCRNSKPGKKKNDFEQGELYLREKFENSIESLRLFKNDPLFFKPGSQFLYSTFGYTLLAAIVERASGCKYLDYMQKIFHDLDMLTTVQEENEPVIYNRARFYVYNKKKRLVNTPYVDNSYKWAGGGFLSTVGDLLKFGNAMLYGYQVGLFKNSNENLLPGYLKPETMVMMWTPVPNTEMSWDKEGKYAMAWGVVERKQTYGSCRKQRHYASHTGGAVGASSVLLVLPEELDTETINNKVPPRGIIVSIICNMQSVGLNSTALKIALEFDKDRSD

Target	probe-labelled cysteine peptide fold change
IGFBP2_P18065_227_TPCQQELDQVLER (UniProt P18065)	-0.19
HNRNPL_P14866_472_QPAIMPGQSYGLEDGSCSYK (UniProt P14866)	-0.158
ITGB2_P05107_481_NCECQTQGR (UniProt P05107)	-0.3
INCENP_Q9NQS7_355_IICHSYLER (UniProt Q9NQS7)	0.105
KLHL36_Q8N4N3_465_NLLCYDHR (UniProt Q8N4N3)	0.0949
IL1RAP_Q9NPH3_47_CPLFEHFLK (UniProt Q9NPH3)	-0.224
KARS_Q15046_463_LVGEFLEVTCINPTFICDHPQIMSPLAK (UniProt Q15046)	0.0979
KPNA3_O00505_417_DQVEYLVQQNVIPPFCNLLSVK (UniProt O00505)	0.149
IPO5_O00410_110_KVCDIAAELAR (UniProt O00410)	0.0489
INTS14_Q96SY0_193_LIDLNNGEGQIFTIDGPLCLK (UniProt Q96SY0)	0.0903
IQGAP1_P46940_1270_RFFQTACDVPELQDK (UniProt P46940)	0.0567
ITGAV_P06756_172_TVEYAPCR (UniProt P06756)	-0.159
KNL1_Q8NG31_2338_QIYQDLFQDCHFYH (UniProt Q8NG31)	0.114
IARS2_Q9NSE4_110_TEFCLHDGPPYANGDPHVGHALNK (UniProt Q9NSE4)	-0.111
IPO13_O94829_951_EFTLLCR (UniProt O94829)	0.0897
KIF2C_Q99661_154_QFSVPPAPTRPSCPAVAEIPLR (UniProt Q99661)	-0.256
HSPA14_Q0VDF9_440_QHTLQAPGSISSVCLELYESDGK (UniProt Q0VDF9)	0.106
HNRNPU_Q00839_607_KAVVVCPKDEDYK (UniProt Q00839)	-0.249
KIF23_Q02241_165_NSMDIQCEVDALLER (UniProt Q02241)	-0.11
LARP1_Q6PKG0_238_NGDEDCQR (UniProt Q6PKG0)	1.03

Target	probe-labelled cysteine peptide fold change
HNRNPL_P14866_452_LNVCVSK (UniProt P14866)	-0.00163
JUP_P14923_609_VAAGVLCELAQDK<|>CTNNB1_P35222_619_VAAGVLCELAQDK (UniProt P35222+P14923)	0.164
IP6K1_Q92551_221_YPCVLDLK (UniProt Q92551)	-0.171
JUND_P17535_336_VLSHVNSGCQLLPQHQVPAY (UniProt P17535)	0.151
ITGB2_P05107_590_RVECSGR (UniProt P05107)	0.176
LAMC1_P11047_367_STGHGGHCTNCQDNTDGAHCER (UniProt P11047)	0.875
INTS13_Q9NVM9_119_ADPECCSILHGLVAAVETLCK (UniProt Q9NVM9)	0.134
LACTB_P83111_154_EVWSEGLGYADVENRVPCKPETVMR (UniProt P83111)	0.129
KBTBD6_Q86V97_173_RLDLTNCTAILK<|>KBTBD7_Q8WVZ9_173_RLDLTNCTAILK (UniProt Q8WVZ9+Q86V97)	0.229
KPNB1_Q14974_223+228_HFIMQVVCEATQCPDTR (UniProt Q14974)	-0.0406
HUWE1_Q7Z6Z7_2106_EDCSVLAFVLDHLLPHTQNAEDKDTPALAR (UniProt Q7Z6Z7)	0.166
KDM2A_Q9Y2K7_582_ACVQGECGVCHYCR (UniProt Q9Y2K7)	0.154
KIF4A_O95239_977_EVCEQNQQLLR (UniProt O95239)	0.177
HSPG2_P98160_3043_CLIHDGAAPISLEWK (UniProt P98160)	-0.0778
HSCB_Q8IWL3_79_ALQAPDPTRDYFSLMDCNR (UniProt Q8IWL3)	0.142
ITGB2_P05107_286_CHLEDNLYK (UniProt P05107)	-0.0831
KIF2C_Q99661_344_ATCFAYGQTGSGK (UniProt Q99661)	0.145
HPS5_Q9UPZ3_37_CTSIAVSR (UniProt Q9UPZ3)	0.0797
ITPR2_Q14571_1299_VVQHFVHCIETHGR<|>ITPR1_Q14643_1308_VVQHFVHCIETHGR (UniProt Q14643+Q14571)	0.327

Same assay, conditions: 50 µM; THP-1; incubation time: 4 h

Target	probe-labelled cysteine peptide fold change
IGFBP2_P18065_227_TPCQQELDQVLER (UniProt P18065)	-0.277
HNRNPL_P14866_472_QPAIMPGQSYGLEDGSCSYK (UniProt P14866)	-0.273
ITGB2_P05107_481_NCECQTQGR (UniProt P05107)	1.18
INCENP_Q9NQS7_355_IICHSYLER (UniProt Q9NQS7)	-0.0799
KLHL36_Q8N4N3_465_NLLCYDHR (UniProt Q8N4N3)	-0.131
IL1RAP_Q9NPH3_47_CPLFEHFLK (UniProt Q9NPH3)	0.177
KARS_Q15046_463_LVGEFLEVTCINPTFICDHPQIMSPLAK (UniProt Q15046)	0.0536
KPNA3_O00505_417_DQVEYLVQQNVIPPFCNLLSVK (UniProt O00505)	0.121
IPO5_O00410_110_KVCDIAAELAR (UniProt O00410)	-0.0971
INTS14_Q96SY0_193_LIDLNNGEGQIFTIDGPLCLK (UniProt Q96SY0)	0.0906
IQGAP1_P46940_1270_RFFQTACDVPELQDK (UniProt P46940)	-0.0367
ITGAV_P06756_172_TVEYAPCR (UniProt P06756)	0.026
KNL1_Q8NG31_2338_QIYQDLFQDCHFYH (UniProt Q8NG31)	-0.335
IARS2_Q9NSE4_110_TEFCLHDGPPYANGDPHVGHALNK (UniProt Q9NSE4)	-0.0208
IPO13_O94829_951_EFTLLCR (UniProt O94829)	0.281
KIF2C_Q99661_154_QFSVPPAPTRPSCPAVAEIPLR (UniProt Q99661)	-0.0382
HSPA14_Q0VDF9_440_QHTLQAPGSISSVCLELYESDGK (UniProt Q0VDF9)	0.0226
HNRNPU_Q00839_607_KAVVVCPKDEDYK (UniProt Q00839)	-0.901
KIF23_Q02241_165_NSMDIQCEVDALLER (UniProt Q02241)	-0.245
LARP1_Q6PKG0_238_NGDEDCQR (UniProt Q6PKG0)	-0.18

Target	probe-labelled cysteine peptide fold change
HNRNPL_P14866_452_LNVCVSK (UniProt P14866)	-0.0389
JUP_P14923_609_VAAGVLCELAQDK<|>CTNNB1_P35222_619_VAAGVLCELAQDK (UniProt P35222+P14923)	1.06
IP6K1_Q92551_221_YPCVLDLK (UniProt Q92551)	-0.00183
JUND_P17535_336_VLSHVNSGCQLLPQHQVPAY (UniProt P17535)	0.00846
ITGB2_P05107_590_RVECSGR (UniProt P05107)	0.172
LAMC1_P11047_367_STGHGGHCTNCQDNTDGAHCER (UniProt P11047)	0.519
INTS13_Q9NVM9_119_ADPECCSILHGLVAAVETLCK (UniProt Q9NVM9)	-0.319
LACTB_P83111_154_EVWSEGLGYADVENRVPCKPETVMR (UniProt P83111)	0.0699
KBTBD6_Q86V97_173_RLDLTNCTAILK<|>KBTBD7_Q8WVZ9_173_RLDLTNCTAILK (UniProt Q8WVZ9+Q86V97)	0.385
KPNB1_Q14974_223+228_HFIMQVVCEATQCPDTR (UniProt Q14974)	-0.0077
HUWE1_Q7Z6Z7_2106_EDCSVLAFVLDHLLPHTQNAEDKDTPALAR (UniProt Q7Z6Z7)	0.176
KDM2A_Q9Y2K7_582_ACVQGECGVCHYCR (UniProt Q9Y2K7)	0.106
KIF4A_O95239_977_EVCEQNQQLLR (UniProt O95239)	0.268
HSPG2_P98160_3043_CLIHDGAAPISLEWK (UniProt P98160)	-0.0952
HSCB_Q8IWL3_79_ALQAPDPTRDYFSLMDCNR (UniProt Q8IWL3)	-0.245
ITGB2_P05107_286_CHLEDNLYK (UniProt P05107)	0.121
KIF2C_Q99661_344_ATCFAYGQTGSGK (UniProt Q99661)	0.0641
HPS5_Q9UPZ3_37_CTSIAVSR (UniProt Q9UPZ3)	0.192
ITPR2_Q14571_1299_VVQHFVHCIETHGR<|>ITPR1_Q14643_1308_VVQHFVHCIETHGR (UniProt Q14643+Q14571)	0.26
